Reference: paper PMC9911399, “Two distinct binding modes provide the RNA-binding protein RbFox with extraordinary sequence specificity”
Residue numbers refer to the chain shown, from its start. Some of the results follow.

T1: RBFOX1 RRM RbFoxmut (Fox-RRM*) (Homo sapiens, UniProt Q9NWB1 109-208, R118D;E147R;N151S;E152T)
T1 sequence: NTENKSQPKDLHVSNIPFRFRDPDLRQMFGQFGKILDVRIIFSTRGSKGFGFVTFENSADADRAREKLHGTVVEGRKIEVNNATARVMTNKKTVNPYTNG

B1: UUGCCCA (DNA:RNA)
RNA: GGGAGACCGGAAUUCAGAUUGUCCUUGCCCAUUAAAUCCCGUCGUAGCCACCA
DNA 1: CAATCTGAATTCCGGTCTCCC
DNA 2: TGGTGGCTACGACGGGATT
B2: GCUUUUU (DNA:RNA)
RNA: GGGAGACCGGAAUUCAGAUUGUCCGCUUUUUUUAAAUCCCGUCGUAGCCACCA
DNA 1: CAATCTGAATTCCGGTCTCCC
DNA 2: TGGTGGCTACGACGGGATT
B3: ACUGGGU (DNA:RNA)
RNA: B2 RNA with G25A, U28G, U29G, U30G
DNA 1: CAATCTGAATTCCGGTCTCCC
DNA 2: TGGTGGCTACGACGGGATT
B4: GCUAUAC (DNA:RNA)
RNA: B2 RNA with U28A, U30A, U31C
DNA 1: CAATCTGAATTCCGGTCTCCC
DNA 2: TGGTGGCTACGACGGGATT
B5: GUCCCCU (DNA:RNA)
RNA: B1 RNA with U25G, G27C, A31U
DNA 1: CAATCTGAATTCCGGTCTCCC
DNA 2: TGGTGGCTACGACGGGATT
B6: GCUUGAU (DNA:RNA)
RNA: B2 RNA with U29G, U30A
DNA 1: CAATCTGAATTCCGGTCTCCC
DNA 2: TGGTGGCTACGACGGGATT
B7: GAGACGC (DNA:RNA)
RNA: B1 RNA with U25G, U26A, C28A, C30G, A31C
DNA 1: CAATCTGAATTCCGGTCTCCC
DNA 2: TGGTGGCTACGACGGGATT
B8: ACUCUAG (DNA:RNA)
RNA: B2 RNA with G25A, U28C, U30A, U31G
DNA 1: CAATCTGAATTCCGGTCTCCC
DNA 2: TGGTGGCTACGACGGGATT
B9: AGAUAAG (DNA:RNA)
RNA: B2 RNA with G25A, C26G, U27A, U29A, U30A, U31G
DNA 1: CAATCTGAATTCCGGTCTCCC
DNA 2: TGGTGGCTACGACGGGATT
B10: UCAAUGU (DNA:RNA)
RNA: B2 RNA with G25U, U27A, U28A, U30G
DNA 1: CAATCTGAATTCCGGTCTCCC
DNA 2: TGGTGGCTACGACGGGATT
B11: AACCUGG (DNA:RNA)
RNA: B2 RNA with G25A, C26A, U27C, U28C, U30G, U31G
DNA 1: CAATCTGAATTCCGGTCTCCC
DNA 2: TGGTGGCTACGACGGGATT
B12: UACGCGU (DNA:RNA)
RNA: B1 RNA with U26A, G27C, C28G, C30G, A31U
DNA 1: CAATCTGAATTCCGGTCTCCC
DNA 2: TGGTGGCTACGACGGGATT
B13: CGAACCG (DNA:RNA)
RNA: B1 RNA with U25C, U26G, G27A, C28A, A31G
DNA 1: CAATCTGAATTCCGGTCTCCC
DNA 2: TGGTGGCTACGACGGGATT
B14: ACCCCAA (DNA:RNA)
RNA: B1 RNA with U25A, U26C, G27C, C30A
DNA 1: CAATCTGAATTCCGGTCTCCC
DNA 2: TGGTGGCTACGACGGGATT
B15: UUGCACU (DNA:RNA)
RNA: B1 RNA with C29A, A31U
DNA 1: CAATCTGAATTCCGGTCTCCC
DNA 2: TGGTGGCTACGACGGGATT
B16: GUAGCCC (DNA:RNA)
RNA: B1 RNA with U25G, G27A, C28G, A31C
DNA 1: CAATCTGAATTCCGGTCTCCC
DNA 2: TGGTGGCTACGACGGGATT
B17: CUGCUUG (DNA:RNA)
RNA: B1 RNA with U25C, C29U, C30U, A31G
DNA 1: CAATCTGAATTCCGGTCTCCC
DNA 2: TGGTGGCTACGACGGGATT
B18: UACGUGG (DNA:RNA)
RNA: B2 RNA with G25U, C26A, U27C, U28G, U30G, U31G
DNA 1: CAATCTGAATTCCGGTCTCCC
DNA 2: TGGTGGCTACGACGGGATT
B19: ACAUACA (DNA:RNA)
RNA: B2 RNA with G25A, U27A, U29A, U30C, U31A
DNA 1: CAATCTGAATTCCGGTCTCCC
DNA 2: TGGTGGCTACGACGGGATT
B20: UGAGGGU (DNA:RNA)
RNA: B2 RNA with G25U, C26G, U27A, U28G, U29G, U30G
DNA 1: CAATCTGAATTCCGGTCTCCC
DNA 2: TGGTGGCTACGACGGGATT

These binders were tested against T1, RBFOX1 RRM RbFoxmut (Fox-RRM*) (assay: EMSA; HiTS-Eq, 1 nM pool, 10 min; buffer printed only for the single-RNA assays: 10 mM Tris pH 7.5, 150 mM NaCl, 3.4 mM EDTA, 0.001% NP-40, 30 C). Conditions: tags: His6 N-terminal (pET28a); label: 5' 32P.
Procedure, shortened: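 Purified RbFox RRM, wild type or mutant, was incubated for 10 min in 50 µL with 1 nM of a 5′-radiolabelled RNA pool carrying 7 randomized nucleotides, whose flanks were annealed to DNA oligonucleotides, over a series of increasing protein concentrations. Unbound RNA was resolved on 8% native PAGE, cut out, reverse-transcribed, barcoded by PCR and sequenced on an Illumina HiSeq 2500. Relative association constants were derived from changes in read counts for each RNA species versus the control reaction and normalised to the cognate motif.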

First: B1
Second: B2
The binding signal of the first is lower: 0.0787 KA relative to UGCAUGU for the first, 0.0825 KA relative to UGCAUGU for the second.

First: B3
Second: B4
The binding signal of the first is higher: 0.13 KA relative to UGCAUGU for the first, 0.103 KA relative to UGCAUGU for the second.

Compared with B5, B6 is higher in binding signal: 0.053 KA relative to UGCAUGU for the first, 0.174 KA relative to UGCAUGU for the second.

First: B7
Second: B8
The binding signal of the first is lower: 0.0555 KA relative to UGCAUGU for the first, 0.0977 KA relative to UGCAUGU for the second.

Compared with B9, B10 is lower in binding signal: 0.153 KA relative to UGCAUGU for the first, 0.103 KA relative to UGCAUGU for the second.

First: B11
Second: B12
The binding signal of the first is lower: 0.0806 KA relative to UGCAUGU for the first, 0.111 KA relative to UGCAUGU for the second.

Compared with B13, B14 is lower in binding signal: 0.101 KA relative to UGCAUGU for the first, 0.0756 KA relative to UGCAUGU for the second.

First: B15
Second: B16
The binding signal of the first is higher: 0.084 KA relative to UGCAUGU for the first, 0.0539 KA relative to UGCAUGU for the second.

First: B17
Second: B18
The binding signal of the first is higher: 0.423 KA relative to UGCAUGU for the first, 0.0673 KA relative to UGCAUGU for the second.

Compared with B19, B20 is lower in binding signal: 0.111 KA relative to UGCAUGU for the first, 0.0738 KA relative to UGCAUGU for the second.
